# Data taken from the supplement of paper PMC11417369.
# The other results are listed elsewhere or left out.
# System: PfSIP2 AP2 domain 1 (GST-tagged)
# Experiment: gcPBM binding intensity (ln(normalized median fluorescence intensity)); higher = stronger DNA binding
# Method in brief: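 GST-tagged P. falciparum DNA-binding domains produced in E. coli were incubated for 1 h on an Agilent 4 × 180k array of primer-extended double-stranded 36-bp intergenic genomic probes with negative controls. Binding intensity is the highest Masliner-normalised natural-log median intensity across replicate spots of either probe orientation, with bound protein detected by Alexa488 anti-GST antibody at 488 nm.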
row,Sequence,gcPBM binding intensity (ln)
1,TATTCAACATAATATGCACACAAAAATTATGGAACG [CACACA_site8660],7.7
2,ATCACATAAAATATGAATATATATTTTATATATATA [CACACA_negctrl_site340],7.58
3,TTAAAAAAAAAAAGGTGTACTATAATTTAATATCAC [XGTACX_site6316],6.95
4,TATATTTACGTATGTCGAACGTTATTTTGAACAACC [CACACA_negctrl_site1261],7.11
5,CGTTTATATAGTGATGCATGCATTGTTAACATGGTT [TGCATGCA_site418],6.94
6,TTTATACACAAAAAATGTACATATATATAATGAATT [XGTACX_site1195],7.4
7,TGTATGTCTTTATTTTGTACACAATATAAAAAATTA [XGTACX_site5441],7.55
8,CGCACAAAAATATACACACACACATATATATTTATT [CACACA_site3645],7.21
9,TAATAATAAATTGGTTGTACAACCTTATACAGAATA [XGTACX_site2592],7.31
10,ACACAAAAAATAAAAATATATATATATTATATATAT [CACACA_negctrl_site1489],7.87
11,TAAAAAAATATATATACATGCATAGAAAAAAAAAAA [TGCATGCA_site552],6.96
12,TTTTTTTATTAAAAATGTACAAAAATGAAAAAATAA [XGTACX_site8279],7.08
13,CATATAATTTTATGGGTGCATTTTTTTGTAAGACCA,11.1
14,TTTTAAACAAAAATTTGTACACAATAATTAAATATA [XGTACX_site6755],7.22
15,ATTTAATTTTTTTTTTTTTTTTTTCAATCCCCTTTT [CACACA_negctrl_site1013],6.74
16,CATTTTAAAGAAAATACACACAAAAATAAATATATA [CACACA_site1395],6.88
17,TATACATATGAAAATACACACATACATACATATATA [CACACA_site8484],6.95
18,ATTATACATATATAAGTGCAATAATGTTTTTTCCTT,7.51
19,AAGGTATATATAACTACACACTTATATATAATCTAA [CACACA_site92],6.91
20,TGTAGTCTGGAGAAAAGTACATAGTATCTGGTAACC [XGTACX_site2025],7.01
21,TAATAAAATATGTACACACATACACCCATATATATA [CACACA_site1220],7.36
22,AACAGACAGAAACACACACACATATATATATATATA [CACACA_site3394],9.24
23,ATTTTCCAAAATAATTGTACAGGAAAGAAATAATTA [XGTACX_site7424],6.92
24,ATACATATTTTACATTCACACAACAAATTTATATTT [CACACA_site4700],7.43
25,AGGAACAAAATATACTGTACTTTATTATTTTCAAAA [XGTACX_site4421],6.98
